Our source for the binding values is article PMC3646048.

Sequences of proteins named here, by UniProt entry; tags and fusion partners are left off. Residues count along the entry.
UniProt P48436: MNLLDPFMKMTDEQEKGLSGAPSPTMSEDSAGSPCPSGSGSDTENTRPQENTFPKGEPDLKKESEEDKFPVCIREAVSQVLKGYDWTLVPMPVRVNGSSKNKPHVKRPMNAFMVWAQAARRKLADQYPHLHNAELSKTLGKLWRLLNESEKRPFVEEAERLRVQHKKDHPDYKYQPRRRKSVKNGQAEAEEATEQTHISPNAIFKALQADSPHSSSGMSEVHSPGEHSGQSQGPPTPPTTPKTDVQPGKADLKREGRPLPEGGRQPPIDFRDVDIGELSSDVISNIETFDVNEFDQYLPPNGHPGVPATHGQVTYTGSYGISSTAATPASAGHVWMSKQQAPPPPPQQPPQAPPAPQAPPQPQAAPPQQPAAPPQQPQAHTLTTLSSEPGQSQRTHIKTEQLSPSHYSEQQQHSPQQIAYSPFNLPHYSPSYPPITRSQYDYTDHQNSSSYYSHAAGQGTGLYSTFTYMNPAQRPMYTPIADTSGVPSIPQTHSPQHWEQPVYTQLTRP
UniProt O54941: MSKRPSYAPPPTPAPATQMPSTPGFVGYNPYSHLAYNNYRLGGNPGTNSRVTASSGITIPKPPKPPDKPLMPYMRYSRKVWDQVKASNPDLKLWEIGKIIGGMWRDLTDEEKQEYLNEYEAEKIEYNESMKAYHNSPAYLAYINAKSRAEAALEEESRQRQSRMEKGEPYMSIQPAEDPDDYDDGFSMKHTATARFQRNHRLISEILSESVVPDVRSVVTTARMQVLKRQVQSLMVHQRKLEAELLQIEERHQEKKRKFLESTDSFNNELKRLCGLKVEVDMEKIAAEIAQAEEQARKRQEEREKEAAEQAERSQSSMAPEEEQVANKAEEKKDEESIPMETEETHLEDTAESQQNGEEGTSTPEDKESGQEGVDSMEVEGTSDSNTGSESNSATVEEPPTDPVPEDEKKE
SOX9 clone clA45 (amino acids 1-168) (Q04887, residues 1-168): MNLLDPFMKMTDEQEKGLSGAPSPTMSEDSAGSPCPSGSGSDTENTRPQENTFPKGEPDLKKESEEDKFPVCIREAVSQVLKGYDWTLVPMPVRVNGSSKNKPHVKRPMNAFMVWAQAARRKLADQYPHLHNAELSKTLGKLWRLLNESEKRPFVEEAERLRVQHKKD
SOX9 clone clA47 (amino acids 1-163) (Q04887, residues 1-163): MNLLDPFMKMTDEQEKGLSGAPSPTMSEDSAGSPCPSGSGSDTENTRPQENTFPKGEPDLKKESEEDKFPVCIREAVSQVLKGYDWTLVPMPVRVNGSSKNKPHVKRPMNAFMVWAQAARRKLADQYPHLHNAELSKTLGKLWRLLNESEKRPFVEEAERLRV

Results are given in words; binding and its absence hold for the method and conditions named. For some assays here: In cells and extracts the contact can be indirect. Some results given as binding are weak or reduced against the parent protein; the word gives no strength. For some assays here: Sequences can lack the tags named with a protein.

For assay [1], the target named is T1, TSHZ3 (bait of the yeast two-hybrid screen) (UniProt Q8CGV9).
T1 sequence: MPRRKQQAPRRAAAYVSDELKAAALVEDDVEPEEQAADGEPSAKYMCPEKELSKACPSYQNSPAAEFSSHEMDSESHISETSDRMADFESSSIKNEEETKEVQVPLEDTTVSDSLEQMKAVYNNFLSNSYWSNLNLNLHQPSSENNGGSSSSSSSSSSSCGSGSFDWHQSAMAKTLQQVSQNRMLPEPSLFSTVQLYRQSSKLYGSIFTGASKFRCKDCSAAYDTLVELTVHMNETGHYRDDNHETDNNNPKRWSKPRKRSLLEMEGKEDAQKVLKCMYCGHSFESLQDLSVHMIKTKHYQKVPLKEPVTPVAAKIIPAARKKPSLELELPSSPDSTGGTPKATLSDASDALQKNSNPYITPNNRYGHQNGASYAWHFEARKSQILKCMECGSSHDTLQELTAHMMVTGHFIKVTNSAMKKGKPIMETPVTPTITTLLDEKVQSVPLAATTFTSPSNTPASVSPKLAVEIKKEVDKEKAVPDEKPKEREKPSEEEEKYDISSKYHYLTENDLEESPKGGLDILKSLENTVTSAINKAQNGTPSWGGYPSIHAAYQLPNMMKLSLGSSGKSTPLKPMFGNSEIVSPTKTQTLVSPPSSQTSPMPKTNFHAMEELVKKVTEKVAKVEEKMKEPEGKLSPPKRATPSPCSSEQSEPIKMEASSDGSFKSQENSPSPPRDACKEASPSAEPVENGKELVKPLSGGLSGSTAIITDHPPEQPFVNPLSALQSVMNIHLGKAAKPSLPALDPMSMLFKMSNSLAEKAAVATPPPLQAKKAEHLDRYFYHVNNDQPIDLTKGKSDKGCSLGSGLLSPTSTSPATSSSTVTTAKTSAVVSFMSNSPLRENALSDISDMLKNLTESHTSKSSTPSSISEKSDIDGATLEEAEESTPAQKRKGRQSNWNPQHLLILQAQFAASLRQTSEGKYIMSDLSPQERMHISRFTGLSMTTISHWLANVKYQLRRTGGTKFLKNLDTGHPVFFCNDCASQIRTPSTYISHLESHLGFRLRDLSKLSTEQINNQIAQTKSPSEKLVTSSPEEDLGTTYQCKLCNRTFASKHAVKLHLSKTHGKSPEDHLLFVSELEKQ
Put plainly: two-hybrid; yeast two-hybrid screen with TSHZ3 as bait; 84 independent clones; screen previously reported in ref. 20.

For assay [2], the target named is Flag-tagged SOX9 (human) (UniProt P48436). Put plainly: co-IP; HEK293T cells transiently transfected; lysis buffer 50 mM Tris-HCl pH 7.6, 200 mM NaCl, 1 mM EDTA, 0.25% Na-deoxycholate; anti-Flag agarose M2 beads overnight at 4°C; immunoblot with anti-HA.

In the case of “SMARCE1/BAF57 (yeast two-hybrid clones) (from UniProt O54941 1-411)”, the binding entry in assay [1] is recorded as “binds”.

As for “SOX9 clone clA45 (amino acids 1-168) (from UniProt Q04887 1-168) (domain or fragment)”, the binding result in assay [1] is reported as “binds”.

For the molecule “SOX9 clone clA47 (amino acids 1-163) (from UniProt Q04887 1-163) (domain or fragment)”, the binding entry in assay [1] is listed as “binds”.

B1: HA-tagged TSHZ3 full length (protein, UniProt Q8CGV9 1-1081)
chain: MPRRKQQAPRRAAAYVSDELKAAALVEDDVEPEEQAADGEPSAKYMCPEKELSKACPSYQNSPAAEFSSHEMDSESHISETSDRMADFESSSIKNEEETKEVQVPLEDTTVSDSLEQMKAVYNNFLSNSYWSNLNLNLHQPSSENNGGSSSSSSSSSSSCGSGSFDWHQSAMAKTLQQVSQNRMLPEPSLFSTVQLYRQSSKLYGSIFTGASKFRCKDCSAAYDTLVELTVHMNETGHYRDDNHETDNNNPKRWSKPRKRSLLEMEGKEDAQKVLKCMYCGHSFESLQDLSVHMIKTKHYQKVPLKEPVTPVAAKIIPAARKKPSLELELPSSPDSTGGTPKATLSDASDALQKNSNPYITPNNRYGHQNGASYAWHFEARKSQILKCMECGSSHDTLQELTAHMMVTGHFIKVTNSAMKKGKPIMETPVTPTITTLLDEKVQSVPLAATTFTSPSNTPASVSPKLAVEIKKEVDKEKAVPDEKPKEREKPSEEEEKYDISSKYHYLTENDLEESPKGGLDILKSLENTVTSAINKAQNGTPSWGGYPSIHAAYQLPNMMKLSLGSSGKSTPLKPMFGNSEIVSPTKTQTLVSPPSSQTSPMPKTNFHAMEELVKKVTEKVAKVEEKMKEPEGKLSPPKRATPSPCSSEQSEPIKMEASSDGSFKSQENSPSPPRDACKEASPSAEPVENGKELVKPLSGGLSGSTAIITDHPPEQPFVNPLSALQSVMNIHLGKAAKPSLPALDPMSMLFKMSNSLAEKAAVATPPPLQAKKAEHLDRYFYHVNNDQPIDLTKGKSDKGCSLGSGLLSPTSTSPATSSSTVTTAKTSAVVSFMSNSPLRENALSDISDMLKNLTESHTSKSSTPSSISEKSDIDGATLEEAEESTPAQKRKGRQSNWNPQHLLILQAQFAASLRQTSEGKYIMSDLSPQERMHISRFTGLSMTTISHWLANVKYQLRRTGGTKFLKNLDTGHPVFFCNDCASQIRTPSTYISHLESHLGFRLRDLSKLSTEQINNQIAQTKSPSEKLVTSSPEEDLGTTYQCKLCNRTFASKHAVKLHLSKTHGKSPEDHLLFVSELEKQ
As to B1, the binding result in assay [2] was “binds”.

B2: N-TSHZ3-HA (domain or fragment, UniProt Q8CGV9 1-483)
chain: MPRRKQQAPRRAAAYVSDELKAAALVEDDVEPEEQAADGEPSAKYMCPEKELSKACPSYQNSPAAEFSSHEMDSESHISETSDRMADFESSSIKNEEETKEVQVPLEDTTVSDSLEQMKAVYNNFLSNSYWSNLNLNLHQPSSENNGGSSSSSSSSSSSCGSGSFDWHQSAMAKTLQQVSQNRMLPEPSLFSTVQLYRQSSKLYGSIFTGASKFRCKDCSAAYDTLVELTVHMNETGHYRDDNHETDNNNPKRWSKPRKRSLLEMEGKEDAQKVLKCMYCGHSFESLQDLSVHMIKTKHYQKVPLKEPVTPVAAKIIPAARKKPSLELELPSSPDSTGGTPKATLSDASDALQKNSNPYITPNNRYGHQNGASYAWHFEARKSQILKCMECGSSHDTLQELTAHMMVTGHFIKVTNSAMKKGKPIMETPVTPTITTLLDEKVQSVPLAATTFTSPSNTPASVSPKLAVEIKKEVDKEKAVPDE
B2: the binding result in assay [2] is given as “binds”.
